In assay [1] the test system is HNT-34 acute myeloid leukemia cells. In words: Subcutaneous AML xenograft, HNT-34 in SCID mice. In kind it is in vivo. The conditions noted are these: 37 μg/kg single ip dose; n=10. On the procedure: SCID (C.B-17/Sz-Prkdc^scid) mice were implanted with 5 million HNT-34 acute myeloid leukemia cells per animal subcutaneously. When mean tumor volume reached 100 mm^3, n=10 mice per treatment group were given a single intraperitoneal injection of h20F3ec-1910(2) PBD ADC or non-binding control hIgGec-1910(2) PBD ADC. PBD ADC dose levels examined were 333 μg/kg, 111 Ig/kg, and 37 μg/kg. Individual mice were sacrificed when subcutaneous HNT-34 tumor volume reached 1,000 mm^3. […] The hIgGec-1910(2) control PBD ADC produced 0/10 complete responses at 333 g/kg.
SCID (C.B-17/Sz-Prkdc^scid) mice were implanted with 5 million HNT-34 acute myeloid leukemia cells per animal subcutaneously. When mean tumor volume reached 100 mm^3, n=10 mice per treatment group were given a single intraperitoneal injection of either anti-NTB-A ADCs h20F3-vcMMAE(4), h20F3-Auristatin2(8), or non-binding control ADCs hIgG-vcMMAE(4) and hIgG-Auristatin2(8). ADC dose levels examined were 3.0 mg/kg, and 1.0 mg/kg. Individual mice were sacrificed when subcutaneous HNT-34 tumor volume reached 1,000 mm^3. […] The h20F3-vcMMAE(4) ADC produced durable complete responses in 4/10 or 9/10 mice at 1.0 mg/kg or 3.0 mg/kg dose levels, respectively. The h20F3-Auristatin2(8) ADC produced 3/10 or 9/10 durable complete responses at 1.0 mg/kg or 3.0 mg/kg dose levels, respectively.

Assay [2] concerns MM.1R cells. In words: Disseminated multiple myeloma xenograft, MM.1R in NSG mice. Type of assay: in vivo. On the procedure:
NSG (NOD scid gamma; NOD.Cg-Prkdc^scid Il2rg^tmlWjl/SzJ) mice were implanted with 1 million MM.1R cells, per animal intravenously to generate a disseminated model of multiple myeloma. Five days after tumor cell implant, n=10 mice per treatment group were given a single intraperitoneal injection of h20F3ec-1910(2) PBD ADC or non-binding control hIgGec-1910(2) PBD ADC. PBD ADC dose levels examined were 333 μg/kg, 111 Ig/kg, and 37 μg/kg. Mice with advanced tumor burden were sacrificed upon showing symptoms of hind limb paralysis, cranial swelling, and/or moribundity.
NSG (NOD scid gamma; NOD.Cg-Prkdc^scid Il2rg^tm1Wjl/SzJ) mice were implanted with 1 million MM.1R cells per animal intravenously to generate a disseminated model of multiple myeloma. Five days after tumor cell implant, n=10 mice per treatment group were given a single intraperitoneal injection of h20F3-Auristatin2(8) ADC or non-binding control hIgG-Auristatin2(8) ADC. Auristatin2 ADC dose levels examined were 3.0 mg/kg and 1.0 mg/kg. Mice with advanced tumor burden were sacrificed upon showing symptoms of hind limb paralysis, cranial swelling, and/or moribundity.

Assay [3] concerns WSU-DLCL2 non-Hodgkin lymphoma cells. Kind of assay: Subcutaneous non-Hodgkin lymphoma xenograft, WSU-DLCL2 in SCID mice. The conditions noted are these: n=8. Type of assay: in vivo. On the procedure: SCID (C.B-17/Sz-Prkdc^scid) mice were implanted with 5 million WSU-DLCL2 non-Hodgkin lymphoma cells per animal subcutaneously. When mean tumor volume reached 100 mm^3, n=8 mice per treatment group were given a single intraperitoneal injection of h20F3ec-1910(2) PBD ADC or control hIgGec-1910(2) PBD ADC. PBD ADC dose levels examined were 100 ug/kg, 50 ug/kg, and 25 ug/kg. Individual mice were sacrificed when subcutaneous WSU-DLCL2 tumor volume reached 1,000 mm^3.

Assay [4] has as its system Normal human T cells. Kind of assay: Complement-dependent cytotoxicity (CDC), Sytox Green. In kind it is cell-based. The conditions noted are these: 0.02-50 μg/mL, human serum, 2 hours. On the procedure:
(§1) Complement-Dependent Cytotoxicity (CDC): Normal human T cells (All Cells, Alameda, Calif.) or cancer cell lines (ATCC, Manassas, Va.) were labelledlabeled with 5 μM Sytox Green (Life Technologies, Grand Island, N.Y.), then bound with serial a serial dose titrations of anti-human NTB-A h20F3 antibody or PBD dimer ADCies (0.02-50 μg/mL) in RPMI1640 media+1020% human serum (Complement Technology, Tyler, TX or Solomon Park Research Laboratories, Kirkland, Wash. Cells were incubated at 37° C., 5% CO2 for 2 hours, and fluorescence from lysed cells was measured with an Envision plate reader (Perkin Elmer, Waltham, Mass.). Data was expressed as a percentage of maximum cell lysis determined with a positive control of 1% TritonX-100-treated cells (Sigma, ST. Louis, Mo.).
(§2) Three cell types were used for analysis: normal human T cells, WIL2-S cells, and Raji cells. Expression of relevant receptors on each cell type is found in Table 7 and is indicated as number of receptor per cell.

Assay [5] relates to WIL2-S cell line. The assay is described as above. Type of assay: cell-based. The conditions noted are these: 0.02-50 μg/mL, human serum, 2 hours. On the procedure: as §1, §2
The subject of assay [6] is Raji cell line. The description is as above. The conditions noted are these: 0.02-50 μg/mL, human serum, 2 hours. Type of assay: cell-based. On the procedure:
as §1, §2

Assay [7] relates to WIL2-S cell line. Kind of assay: ADCC, chromium-51 release with NK effector cells. In kind it is cell-based. The conditions noted are these: NK effector to target 10:1, 4 hours. On the procedure: Antibody-Dependent Cellular Cytotoxicity (ADCC) Activity Assay: ADCC cytotoxic activity was measured by chromium-51 release in which effector natural killer (NK) cells kill (lyse) target cells via binding to the antibody or ADC on the target cells. WIL2-S cells were labeled with chromium-51, bound with antibody (0.1 ng/mL-10 μg/mL), and then incubated with NK cells at an effector to target ratio of 10:1 for 4 hours at 37° C., 5% CO2. Supernatant was removed to a filter plate and chromium-51 counts were measured with a TopCount (Perkin Elmer, Waltham, Mass.). Data was expressed as a percentage of maximum specific cell lysis determined with a positive control of 1% TritonX-100-treated cells (Sigma, St. Louis, Mo.).

B1: h20F3ec-1910(2) (conjugate)
heavy: QIQLVQSGSELKKPGASVKVSCKASGYTFTNYGMNWVRQAPGQDLKWMGWINTYSGEPRYADDFKGRFVFSLDKSVNTAYLQISSLKAEDTAVYYCARDYGRWYFDVWGQGTTVTVSS[sequence of human IgG1 constant region with changes omitted]
light: QIVLSQSPATLSLSPGERATMSCRASSSVSHMHWYQQKPGQAPRPWIYATSNLASGVPARFSGSGSGTDYTLTISSLEPEDFAVYYCQQWSSTPRTFGGGTKVEIKRTVAAPSVFIFPPSDEQLKSGTASVVCLLNNFYPREAKVQWKVDNALQSGNSQESVTEQDSKDSTYSLSSTLTLSKADYEKHKVYACEVTHQGLSSPVTKSFNRGEC
For B1, the durable complete responses in assay [1] is given as 2/10; in assay [2] (all dose levels (333, 111, 37 μg/kg), single intraperitoneal dose, n=10), 10/10; in assay [3] (100 ug/kg single ip dose) it was 2/8. Further, in assay [1], the tumor delay entry is on record as “strong tumor delay”. Moreover, in assay [2] (37 μg/kg versus control hIgGec-1910(2) ADC (333 μg/kg), P<0.0001), the “difference versus control group (Mantel-Cox test)” value is “statistically significant difference”. Further, the “tumor growth delay relative to untreated mice” value in assay [3] (25 ug/kg and 50 ug/kg single ip dose) was “measurable tumor growth delays”. For the same molecule, the “CDC Maximum % Specific Cell Lysis” value in assay [4] came to 2.1 ± 3.0%; in assay [5], 0.3 ± 0.0%; in assay [6], 0.0 ± 0.0%. Moreover, the “ADCC Maximum % Specific Cell Lysis” value in assay [7] was determined as 16 ± 3.3%.

Values taken from patent US20230218776A1, “ANTI-NTB-A ANTIBODIES AND RELATED COMPOSITIONS AND METHODS” (SEAGEN INC., priority 2015, published 2023).
